Results as given in article PMC11199487, “Hub stability in the calcium calmodulin-dependent protein kinase II” (Communications Biology, 2024).

Experiments:
[1] = target: the molecule itself; assay: single-molecule TIRFM (spot intensity and photobleaching steps); Venus-tagged CaMKII stock diluted >1000x in AB- buffer, immobilised on a GFP antibody-coated coverslip, unbound protein washed out, room temperature
[2] = target: the molecule itself; assay: SEC; EnRich SEC 650 column, 50 mM Tris, 150 mM KCl, 0.2 mM TCEP, 2% glycerol, pH 8.0, room temperature, thawed stocks applied without dilution, 250 μL, 1 mL/min

B1: CaMKIIα holoenzyme F394A (6His-V15-mCaMKIIaF394A) (enzyme)
chain: not shown
notes: also called α_(F394A); source: E. coli BL21/Rosetta, co-transformed with a protein phosphatase plasmid, purified (nickel Hi-Trap); not shown: Venus, N-terminal, kept
stoichiometry N [1]: 2

B2: CaMKIIβ holoenzyme, native (6His-V15-rCaMKIIβ) (enzyme)
chain: not shown
notes: rat CaMKII beta, open reading frame codon optimized for bacterial expression; also called native β holoenzyme; V-CaMKII β; source: E. coli BL21/Rosetta, co-transformed with a protein phosphatase plasmid, purified (nickel Hi-Trap); not shown: Venus, N-terminal, kept
binding result [1]: binds

B3: CaMKIIβ holoenzyme F458A (6His-V15-rCaMKIIβ F458A) (enzyme)
chain: not shown
notes: rat CaMKII beta, open reading frame codon optimized for bacterial expression, with F458A; also called dimeric βF458A; source: E. coli BL21/Rosetta, co-transformed with a protein phosphatase plasmid, purified (nickel Hi-Trap); not shown: Venus, N-terminal, kept
stoichiometry N [2]: 2
